The other results are listed elsewhere or left out. The list includes weakly bound sequences.

This assay has as its target T1, MBP-FoxP3dN (UniProt Q99JB6).
T1 sequence: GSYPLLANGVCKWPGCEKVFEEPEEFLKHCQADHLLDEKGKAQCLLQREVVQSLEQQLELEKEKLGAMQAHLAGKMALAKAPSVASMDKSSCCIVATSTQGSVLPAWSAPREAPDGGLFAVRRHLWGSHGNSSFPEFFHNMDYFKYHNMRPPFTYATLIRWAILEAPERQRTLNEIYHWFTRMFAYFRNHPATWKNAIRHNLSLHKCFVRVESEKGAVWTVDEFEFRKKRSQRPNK
In words: PD-seq (MBP pull-down with sequencing). The conditions noted are these: 20 mM Tris-HCl pH 7.5, 100 mM NaCl, 1.5 mM MgCl2, 0.4 uM protein, 0.1 uM dsDNA library, 30 min, room temperature, amylose pull-down; high values mean tight binding; double strand, one strand shown.
On to “GATGATTGTTCTCCCAGCTGATGAATTTTGAGCCTCGAGTAAACAAATTTTCCTAATCTTTCTGTTCAAGCGCCATCTAC”, for which the binding signal (RPM ratio (pull-down/input)) was determined as 0.568. “GATGATTGTTCTCCCAGCTGATGAATTATCCACATCGAGTAAACAAATTTTCCTAATCTTTCTGTTCAAGCGCCATCTAC”: the binding signal (RPM ratio (pull-down/input)) stood at 0.467. The same measure for “GATGATTGTTCTCCCAGCTGATGAATTGCCCTAGTCGAGTAAACAAATTTTCCTAATCTTTCTGTTCAAGCGCCATCTAC”: 0.363. The same measure for “GATGATTGTTCTCCCAGCTGATGAATTCAATCCTTCGAGTAAACAAATTTTCCTAATCTTTCTGTTCAAGCGCCATCTAC”: 0.264; for “GATGATTGTTCTCCCAGCTGATGAATTTCATTGTTCGAGTAAACAAATTTTCCTAATCTTTCTGTTCAAGCGCCATCTAC”: 2.03; for “GATGATTGTTCTCCCAGCTGATGAATTAGTCAGATCGAGTAAACAAATTTTCCTAATCTTTCTGTTCAAGCGCCATCTAC”: 0.274.

Consider “GATGATTGTTCTCCCAGCTGATGAATTTCGCGTGTCGAGTAAACAAATTTTCCTAATCTTTCTGTTCAAGCGCCATCTAC”, for which the binding signal (RPM ratio (pull-down/input)) stood at 4.44. Under “GATGATTGTTCTCCCAGCTGATGAATTTTAGCCCTCGAGTAAACAAATTTTCCTAATCTTTCTGTTCAAGCGCCATCTAC” stands 0.446. As for “GATGATTGTTCTCCCAGCTGATGAATTCACAGACTCGAGTAAACAAATTTTCCTAATCTTTCTGTTCAAGCGCCATCTAC”, the binding signal (RPM ratio (pull-down/input)) was determined as 0.226. The same measure for “GATGATTGTTCTCCCAGCTGATGAATTCGTAAAATCGAGTAAACAAATTTTCCTAATCTTTCTGTTCAAGCGCCATCTAC”: 0.21; for “GATGATTGTTCTCCCAGCTGATGAATTTGCGGTATCGAGTAAACAAATTTTCCTAATCTTTCTGTTCAAGCGCCATCTAC”: 1.46; for “GATGATTGTTCTCCCAGCTGATGAATTGTCCATCTCGAGTAAACAAATTTTCCTAATCTTTCTGTTCAAGCGCCATCTAC”: 0.502. For “GATGATTGTTCTCCCAGCTGATGAATTGTCTCAATCGAGTAAACAAATTTTCCTAATCTTTCTGTTCAAGCGCCATCTAC”, the binding signal (RPM ratio (pull-down/input)) came to 0.399.

Consider “GATGATTGTTCTCCCAGCTGATGAATTTGCGATGTCGAGTAAACAAATTTTCCTAATCTTTCTGTTCAAGCGCCATCTAC”, for which the binding signal (RPM ratio (pull-down/input)) amounted to 1.64. Under “GATGATTGTTCTCCCAGCTGATGAATTTCAATACTCGAGTAAACAAATTTTCCTAATCTTTCTGTTCAAGCGCCATCTAC” stands 0.528; under “GATGATTGTTCTCCCAGCTGATGAATTAGGGCACTCGAGTAAACAAATTTTCCTAATCTTTCTGTTCAAGCGCCATCTAC”, 0.441; under “GATGATTGTTCTCCCAGCTGATGAATTTGCCGAATCGAGTAAACAAATTTTCCTAATCTTTCTGTTCAAGCGCCATCTAC”, 0.346.

As for “GATGATTGTTCTCCCAGCTGATGAATTATCCCTGTCGAGTAAACAAATTTTCCTAATCTTTCTGTTCAAGCGCCATCTAC”, the binding signal (RPM ratio (pull-down/input)) came to 0.285.

Consider “GATGATTGTTCTCCCAGCTGATGAATTAAGCACATCGAGTAAACAAATTTTCCTAATCTTTCTGTTCAAGCGCCATCTAC”, for which the binding signal (RPM ratio (pull-down/input)) is 0.847. On to “GATGATTGTTCTCCCAGCTGATGAATTCAGACATTCGAGTAAACAAATTTTCCTAATCTTTCTGTTCAAGCGCCATCTAC”, for which the binding signal (RPM ratio (pull-down/input)) amounted to 0.869. With “GATGATTGTTCTCCCAGCTGATGAATTGTTTCAATCGAGTAAACAAATTTTCCTAATCTTTCTGTTCAAGCGCCATCTAC”, the binding signal (RPM ratio (pull-down/input)) is 0.612. Under “GATGATTGTTCTCCCAGCTGATGAATTTAGTGGGTCGAGTAAACAAATTTTCCTAATCTTTCTGTTCAAGCGCCATCTAC” stands 1.06; under “GATGATTGTTCTCCCAGCTGATGAATTAAGAGCATCGAGTAAACAAATTTTCCTAATCTTTCTGTTCAAGCGCCATCTAC”, 0.765; under “GATGATTGTTCTCCCAGCTGATGAATTCTGATCGTCGAGTAAACAAATTTTCCTAATCTTTCTGTTCAAGCGCCATCTAC”, 0.434. Under “GATGATTGTTCTCCCAGCTGATGAATTAAGATGATCGAGTAAACAAATTTTCCTAATCTTTCTGTTCAAGCGCCATCTAC” stands 0.542. Regarding “GATGATTGTTCTCCCAGCTGATGAATTACTGATGTCGAGTAAACAAATTTTCCTAATCTTTCTGTTCAAGCGCCATCTAC”, the binding signal (RPM ratio (pull-down/input)) came to 0.487. The same measure for “GATGATTGTTCTCCCAGCTGATGAATTCCTAAGGTCGAGTAAACAAATTTTCCTAATCTTTCTGTTCAAGCGCCATCTAC”: 0.198.

Regarding “GATGATTGTTCTCCCAGCTGATGAATTCTGCGGATCGAGTAAACAAATTTTCCTAATCTTTCTGTTCAAGCGCCATCTAC”, the binding signal (RPM ratio (pull-down/input)) is 0.373.

As for “GATGATTGTTCTCCCAGCTGATGAATTAGATGGTTCGAGTAAACAAATTTTCCTAATCTTTCTGTTCAAGCGCCATCTAC”, the binding signal (RPM ratio (pull-down/input)) stood at 1.41. For the sequence “GATGATTGTTCTCCCAGCTGATGAATTAGCTAAGTCGAGTAAACAAATTTTCCTAATCTTTCTGTTCAAGCGCCATCTAC”, the binding signal (RPM ratio (pull-down/input)) amounted to 0.231. Under “GATGATTGTTCTCCCAGCTGATGAATTGCTCTTTTCGAGTAAACAAATTTTCCTAATCTTTCTGTTCAAGCGCCATCTAC” stands 0.627.

Values taken from PMC12820563.
